TGI and GI50 data for 81 compounds are collected here from PubChem BioAssay (NCI).

Where “and” joins values, the source holds several entries; their conditions need not be identical. Equal values may be shown once.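 All cell lines were grown in 96-well plates and treated with compound for 48 hours. GI50 = concentration required for 50% inhibition of growth. TGI denotes the concentration required for complete inhibition of growth.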

The subject of the assay is NCI-H322M lung. The assay can be described thus: NCI anticancer screen, dose series, 48 h.
Consider `CC(C)c1c(O[Si](C(C)C)(C(C)C)C(C)C)cc2c(c1O)CC[C@H]1C(C)(C)CCC[C@]21C`, for which the TGI was greater than 100 µM. With `NS(=O)(=O)c1ccc(NC(=O)c2ccc3nc4ccccc4c(Nc4ccc(S(N)(=O)=O)cc4)c3c2)cc1`, the TGI is greater than 100 µM. Take `CC[C@@H](C)/C=C(C)/C=C/C(=O)c1c(O)c(-c2ccc(O)cc2)cn(OC2CC(=O)CCC(C)OC(=O)CC2O)c1=O` (stereo not given in full): the GI50 is 0.265 µM and the TGI came to 9.22 µM.

On to `CC(C)CC1N=C(OCc2ccccc2)OC1=O` (stereo not given), for which the TGI was greater than 100 µM. Take `CN(/N=C/C=N/N(C)C1=NCCN1)C1=NCCN1`: the TGI was greater than 100 µM.

`Cc1cc(Cl)cc2c1NC(=O)C2(O)C(C(=O)c1ccccc1)c1ccccc1` (stereo not given) registered a TGI greater than 100 µM. On the same count and under the same terms, the result for `O=CC1OC(=O)c2cc(O)c(O)c(O)c2-c2c(cc(O)c(O)c2O)C(=O)OC1C1OC(=O)c2cc(O)c(O)c(O)c2-c2c(O)c(O)c3oc(=O)c4c(c(O)c(O)c5oc(=O)c2c3c54)-c2c(cc(O)c(O)c2O)C(=O)OCC1O` (stereo not given) reads greater than 100 µM.

In turn, `O=C(CC(=O)c1cccc([N+](=O)[O-])c1)C(=O)Nc1ccccc1` showed a TGI greater than 100 µM. On the same count and under the same terms, the result for `COC1C(=O)CCC2(CO2)C1(O)C1(C)OC1CC=C(C)C` (stereo not given) reads greater than 100 µM; that for `O=C(CC1(O)C(=O)Nc2ccccc21)c1ccccc1O` (stereo not given), greater than 100 µM. As for `S=C(S)NCCN1CCNCC1`, the TGI is greater than 100 µM. For the compound `CC(=O)N[C@@H](Cc1ccc(OP(=O)(O)O)cc1)C(=O)N[C@H]1CCC(=O)N2CCC[C@@H](C(=O)NC3CCc4ccccc43)N2C1=O` (stereo not given in full), the GI50 is greater than 25 µM and the TGI is greater than 25 µM.

Take `O=C1CN(c2ccccc2)C(=O)CN1NCNN1CC(=O)N(c2ccccc2)CC1=O`: the TGI was greater than 100 µM. In turn, `Clc1ccccc1C1SCc2nc3ccccc3n21` (stereo not given) came in with a TGI greater than 100 µM. The same measure, in the same setting: the result for `COC(=O)C1=CC(=O)[C@@H]2CCCC[C@H]12` reads greater than 100 µM. Turning to `CCCCCCCCCC[C@H](O)[C@H]1CC[C@@H]([C@@H](O)CC[C@H](O)[C@@H]2CCC(CCCCCCC[C@@H](O)CC3=C[C@H](C)OC3=O)O2)O1` (stereo not given in full), the GI50 was 8.3 µM; the TGI was 7.95 µM and 23.7 µM.

Consider `COc1c(B(O)O)cccc1-c1nc2c(F)cc3n[nH]c(C)c3c2c2c1CCCC2`, for which the GI50 is 1.5 µM and the TGI was greater than 50 µM.

Regarding `COC(=O)C1=CCC2c3[nH]c4ccccc4c3CCN2C1` (stereo not given), the TGI is greater than 354 µM. For `C[C@]12CC[C@H]3[C@@H](CC[C@]4(O)C[C@@H](O[C@@H]5O[C@H](CO)[C@@H](O[C@@H]6OC[C@@H](O)[C@H](O)[C@H]6O)[C@H](O)[C@H]5O)CC[C@]34C=O)[C@@]1(O)CC[C@@H]2C1=CC(=O)OC1`, the GI50 was 1.26 µM and the TGI amounted to 4.26 µM. With `CN(C)CC(C)(C)CN1c2ccccc2Sc2ccccc21`, the TGI amounted to 28.8 µM.

The compound `COC(=O)C(C(=O)C(=O)Nc1ccccc1C)c1nc2ccc([N+](=O)[O-])cc2[nH]c1=O` (stereo not given) displayed a TGI greater than 100 µM.

For the compound `COc1ccc(/C=C\c2cc(OC)c(OC)c(OC)c2)c(NS(=O)(=O)c2ccc(F)cc2)c1O`, the GI50 was 0.2 µM and the TGI was greater than 100 µM. In the same order, the values of `O=C(CCN1CCCN(c2cnc3ccccc3n2)CC1)c1csc2ccccc12` are 59.6 µM and greater than 100 µM.

`CC/C=C\C=C/C(=O)N/C=C/CCC`: the TGI is greater than 100 µM. As to `O=C(CCCn1ccnc1[N+](=O)[O-])NCCn1cnc([N+](=O)[O-])n1`, the TGI was greater than 100 µM. On the same count and under the same terms, the result for `CC1(C)[C@H]2Cc3cc4nc5ccccn5c4cc3[C@@H]1C2` reads 36 µM. `[CH3][Hg]/[N]=C(/N)NC#N`: the GI50 was 20.7 µM and the TGI is 39.4 µM. Compound `CCCCCCCCCCCCCCCC(=O)OC1C(O)C(O)C(O)C(O)C12CO2` (stereo not given) came in with a TGI greater than 100 µM. For the compound `CC#CC#C/C=C1\C=CC2(OC=CC2O)O1` (stereo not given), the TGI is greater than 23.3 µM.

The compound `CN(Cc1cnc2nc(N)nc(N)c2n1)c1ccc(C(=O)NCCCC(=O)O)cc1` registered a TGI greater than 100 µM. As to `O=C1c2ccc3c4c(ccc(c24)C(=O)N1CCNCc1ccccc1)C(=O)N(CCNCc1ccccc1)C3=O`, the GI50 was 2.22 µM and the TGI is 5.69 µM. Compound `O=c1c2cc([N+](=O)[O-])ccc2n2n1CCCCC2` gave a TGI greater than 100 µM. On the same count and under the same terms, the result for `COc1ccc(Nc2cc(=O)[nH]c(=O)[nH]2)cc1` reads greater than 100 µM; that for `C/C(=N\O)c1cccc(Nc2c3ccccc3nc3occc23)c1`, 97.9 µM. The compound `COc1ccc2nc3cc(Cl)ccc3c(NCCCCCC(=O)NC(COc3ccc4ccc5cccnc5c4n3)COc3ccc4ccc5cccnc5c4n3)c2c1` displayed a TGI of 35 µM.

In turn, `CC(N)C(C)c1ccccc1` (stereo not given) came in with a TGI greater than 100 µM. On to `Fc1ccc(Nc2nc3nonc3nc2Nc2ccc(I)cc2)cc1`, for which the GI50 was 0.262 µM and the TGI was determined as 11.3 µM. `COc1ccc(CNc2nc3cc(C(F)(F)F)ccc3nc2C(=O)O)cc1` had a TGI of 72.1 µM. On the same count and under the same terms, with `CCOC(=O)c1cc([N+](=O)[O-])c(Sc2ncnc3nc[nH]c23)c([N+](=O)[O-])c1` the figure was 20.1 µM. With `CN(C)C1CN(C(=O)c2cc(-c3ccc4ncnc(N5CCc6cc(F)c(Cl)cc65)c4c3)cnc2N)C1`, the GI50 is 0.686 µM and the TGI is greater than 100 µM. For the compound `CC(=O)Nc1ccc(C2=N/C(=C\c3ccc(Cl)cc3)C(=O)O2)cc1`, the TGI turned out to be 76.2 µM.

`O=C(OCC(OC(=O)c1ccccc1)C1CC(C2(O)CCCCC2)C(=O)O1)c1ccccc1` (stereo not given) registered a TGI greater than 25 µM.

Take `Cc1ccc(NC(=O)CC2SC(=Nc3ccc(Cl)cc3)NC2=O)cc1C` (stereo not given): the TGI was determined as 61.1 µM.

On to `C=CC(=O)N1CCC[C@@H](n2nc(-c3ccc(Oc4ccccc4)cc3)c3c(N)ncnc32)C1`, for which the GI50 was 0.253 µM and the TGI is greater than 10 µM. Turning to `Cc1cnc(-c2ccc(-c3ccc(NC(=O)Nc4c(F)cc(F)cc4F)cc3F)c3c2C(=O)NC3)[nH]1`, the GI50 is 1.1 µM and 0.956 µM; the TGI was 9.97 µM and 13.1 µM. On to `COc1cc(N(CCCl)CCCl)ccc1/C=N\NC(=O)c1cccnc1`, for which the GI50 is 45.9 µM and the TGI was greater than 100 µM. In the same order, the values of `Nc1n[nH]c2ccc([C@@H]3Nc4ccc5cn[nH]c5c4[C@H]4C5CCC(C5)[C@@H]34)cc12` (stereo not given in full) are 0.61 µM and greater than 100 µM. `O=C(O)CCC1c2[nH]c3ccccc3c2CCN1Cc1ccccc1` (stereo not given): the TGI is greater than 100 µM. Consider `Cc1cc(-c2cc(OC(=O)c3ccccc3)ccc2Cl)cc2nnc(Nc3ccc(OCCN4CCCC4)cc3)nc12`, for which the GI50 was 1.66 µM and the TGI worked out at 3.03 µM. In turn, `Nc1ccc(C2SCC(=O)N2NS(=O)(=O)c2cccc(C(=O)O)c2)cc1` (stereo not given) gave a TGI greater than 100 µM. As to `Cn1c(=O)c(Oc2ccc(F)cc2F)cc2cnc(NCC(C)(C)O)nc21`, the GI50 was greater than 25 µM and the TGI was greater than 25 µM. `C/C(CCN(C)C)=N\OC(=O)c1ccccc1` gave a TGI greater than 100 µM. On the same count and under the same terms, the result for `O=C1c2ccccc2C(=O)N1NC1=NCCN1` reads greater than 100 µM; that for `O=c1oc2ccccc2n1P(=O)(Oc1ccc(Cl)cc1)n1c(=O)oc2ccccc21`, greater than 100 µM. In turn, `C[C@]12CCc3nn(-c4ccccc4)nc3C1CC[C@@H]1C2CC[C@]2(C)C(=O)CCC12` (stereo not given in full) returned a TGI greater than 100 µM. Consider `CC1CCc2c(sc3ncnc(N/N=C/c4ccc(Cl)cc4)c23)C1` (stereo not given), for which the TGI was greater than 100 µM.

In turn, `CN(C)NC1=NS(=O)(=O)c2cc3c(=O)n(C)[nH]c3cc2S1` yielded a TGI greater than 10 µM. With `CCCCCCCCCCCCCCCCCC[S+](C)CC` (stereo not given), the GI50 was 1.87 µM and the TGI amounted to 5.38 µM.

Compound `COC(=O)c1c2c(cc3c1CC1(C3)Cc3cc4c(c(C(=O)OC)c3C1)CCC4)CCC2` displayed a TGI greater than 100 µM. Still for that read-out and setting: with `O=C(O)c1ccc(Nc2cnc3cc(C(F)(F)F)ccc3n2)cc1` the figure was greater than 100 µM; with `CCN(CC)CCSc1c(C(C)=O)c(=O)n(-c2ccccc2)c(=S)n1-c1ccccc1`, greater than 100 µM; with `CCc1ccccc1NC(=O)C(=O)C1C(=O)N(c2ccccc2)N=C1N` (stereo not given), greater than 100 µM.

Regarding `N#C/C(=C\c1ccc[nH]1)C(=O)c1ccccc1`, the TGI was greater than 100 µM. Turning to `COC(=O)Nc1nc2ccc(C(=O)c3ccc(F)cc3)cc2[nH]1`, the GI50 is 1.01 µM and the TGI is greater than 100 µM. `CCN(/N=C1\CC2C=CCN(C2)C(=O)Cc2c1[nH]c1ccccc21)S(=O)(=O)c1ccc(C)cc1` (stereo not given): the TGI was greater than 100 µM.

Compound `O[C@@]12Cc3c([nH]c4ccccc34)[C@@H]3Oc4c(-c5ccccc5)ccc5c4[C@@]31CCN(CC1CC1)[C@@H]2C5` came in with a TGI of 3.71 µM. For `COc1cc2c(cc1OCCCN1CCN(C(=S)SCCC(C#N)(c3ccccc3)c3ccccc3)CC1)N=C[C@@H]1CCCN1C2=O`, the GI50 is 2.09 µM and the TGI was 4.53 µM. `c1ccc2c(c1)-c1ccccc1C2NC1=NCCO1` had a TGI greater than 100 µM. Consider `CC/C(=C(/c1ccc(OCCN(C)C)cc1)c1ccc(OC(=O)CCCCCCCCC(=O)c2c(C)[nH]c(/C=C3\N=C(c4ccc[nH]4)C=C3OC)c2C)cc1)c1ccccc1`, for which the GI50 is greater than 100 µM and the TGI is greater than 100 µM. Turning to `O=c1/c(=C\c2ccc(Br)cc2)sc2n1C(c1ccc(Br)cc1)C1=C(N=2)c2ccc3ccccc3c2OCC1` (stereo not given), the GI50 is 1.99 µM and the TGI is greater than 100 µM. `Cc1cc(N=Cc2c(CO)cnc(C)c2O)c(N=Cc2c(CO)cnc(C)c2O)cc1C` came in with a TGI greater than 100 µM. `Cn1c(=O)n(C2(C)CSC2)c2ccccc21` gave a TGI greater than 100 µM. The same measure, in the same setting: the result for `c1cc(CSc2ncnc3nc[nH]c23)ccn1` reads greater than 100 µM. For the compound `COC(=O)c1cccc(NC(=O)c2ccc(NC3=C(Cl)C(=O)N(Cc4ccccc4)C3=O)cc2)c1`, the GI50 was 18.8 µM and the TGI was determined as 38.5 µM. Take `O=C(/C=C/c1cccc(Br)c1)N1CCN(CCOC(c2ccccc2)c2ccccc2)CC1`: the TGI was greater than 100 µM. The compound `C=C(C)[C@H]1CC(=O)[C@@]2(C)C[C@H]3O[C@]3(C)CC/C=C(\C)CC[C@H]12` gave a TGI greater than 100 µM. On the same count and under the same terms, with `c1ccc(/C(=N/Nc2ccccn2)c2cccnn2)cc1` the figure was greater than 100 µM; with `S=C1NNC2(C(=S)N1)c1ccccc1-c1ccccc12`, greater than 10 µM. For `COc1cc(N2CCC(N)CC2)ccc1Nc1ncc(Cl)c(-c2c[nH]c3ccccc23)n1`, the GI50 is 0.238 µM and the TGI was determined as 4.01 µM. Compound `COc1cc2c(cc1-c1coc3cc(O)ccc3c1=O)OCO2` displayed a TGI of 83.1 µM. In the case of `CC1(C)C(CC(=O)O)CCCC1CC(=O)O` (stereo not given), the TGI is greater than 100 µM.
